Laboratory results reported in PubChem BioAssay AID504339 (National Center for Advancing Translational Sciences (NCATS), 2011).
The whole screen tested about 390,000 compounds, of which about 17,000 (4.4%) were called active. The shares of active, inactive and inconclusive entries below differ from those in the screen. Calls follow the shape of the dose curve; as a rule, active = well fitted inhibition curve with a large enough effect; inconclusive = small, poorly fitted or top-dose-only effect; inactive = no such curve, though single readings can be large or run the other way. Potencies of inconclusive entries are doubtful fits and often do not repeat.

target: Lysine-specific demethylase 4A (Homo sapiens) (UniProt O75164); assay: qHTS Assay for Inhibitors of JMJD2A-Tudor Domain; conditions: AlphaScreen JMJD2A-Tudor / H3K4me3 peptide binding; series mostly up to 114 µM; also: nearly all actives have a fitted effect of over 50% in size
Sequence of UniProt O75164 (O75164 whole entry, looked up, the tested form may be a part): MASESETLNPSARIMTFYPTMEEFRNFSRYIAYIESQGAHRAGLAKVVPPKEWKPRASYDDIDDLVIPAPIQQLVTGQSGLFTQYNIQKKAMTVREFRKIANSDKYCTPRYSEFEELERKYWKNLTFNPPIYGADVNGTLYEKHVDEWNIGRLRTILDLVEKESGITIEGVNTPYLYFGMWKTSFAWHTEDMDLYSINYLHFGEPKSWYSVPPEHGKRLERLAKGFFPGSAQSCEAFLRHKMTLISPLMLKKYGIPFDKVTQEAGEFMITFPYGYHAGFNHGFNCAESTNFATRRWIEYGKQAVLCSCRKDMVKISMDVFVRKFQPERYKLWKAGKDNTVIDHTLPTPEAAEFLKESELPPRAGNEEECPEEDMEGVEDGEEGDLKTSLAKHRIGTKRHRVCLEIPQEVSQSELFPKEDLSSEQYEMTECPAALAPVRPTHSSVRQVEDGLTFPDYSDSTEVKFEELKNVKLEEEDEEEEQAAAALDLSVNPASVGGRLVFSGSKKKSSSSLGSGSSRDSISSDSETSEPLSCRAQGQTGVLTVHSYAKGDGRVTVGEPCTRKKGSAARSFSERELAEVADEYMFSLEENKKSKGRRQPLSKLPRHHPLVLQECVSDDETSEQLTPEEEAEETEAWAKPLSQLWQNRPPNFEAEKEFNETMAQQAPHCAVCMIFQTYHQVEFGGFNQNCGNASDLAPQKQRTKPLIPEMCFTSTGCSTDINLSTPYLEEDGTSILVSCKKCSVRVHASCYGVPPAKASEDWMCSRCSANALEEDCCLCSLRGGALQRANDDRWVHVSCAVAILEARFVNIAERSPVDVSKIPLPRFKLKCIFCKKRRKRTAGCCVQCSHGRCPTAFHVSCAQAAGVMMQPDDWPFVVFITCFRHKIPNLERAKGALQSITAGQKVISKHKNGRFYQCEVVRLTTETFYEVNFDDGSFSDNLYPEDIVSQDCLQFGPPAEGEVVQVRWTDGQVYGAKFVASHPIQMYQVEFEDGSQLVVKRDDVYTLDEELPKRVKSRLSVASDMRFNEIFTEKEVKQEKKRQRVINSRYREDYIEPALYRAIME
Potency is read from the fitted curve at half-maximal effect; tags tell the direction and shape of the fitted curve.

Structure (SMILES)	Potency
C#CCOCCOCCOCCNc1nc(N2CCN(C(=O)CCCCCCCCCCNC(=O)[C@H](CCC(=O)O)n3cc(CCCCCN)nn3)CC2)nc(N2CCN(C(=O)CCCCCCCCCCNC(=O)[C@@H]([C@H](C)O)n3cc(C)nn3)CC2)n1	inconclusive: 39.8 µM [inhibitor, partial curve]
CCOc1cc(C(=O)NCCN2C(=O)S/C(=C\c3cccnc3)C2=O)cc(OCC)c1OCC	inactive
COc1ccc(-c2n[nH]c(C)c2-c2ccc(Cl)cc2)c(O)c1	inconclusive: 56.2 µM [inhibitor, partial curve, poor fit]
CCN(C(=O)c1cc2c(=O)oc3ccc(C)cc3c2s1)c1ccccc1F	inactive
Cc1ccc(C(=O)NCCCNCCCN(C)C)cn1	active: 50.1 µM
Cc1cc(C)c2sc(NC(=O)c3ccc([N+](=O)[O-])o3)nc2c1	inconclusive: 35.5 µM [inhibitor, full curve, poor fit]
CC1(c2ccccc2)CC(C)(C)N2C(=O)C(=O)c3cccc1c32 (stereo not drawn)	inconclusive: 56.2 µM [inhibitor, partial curve]
COc1ccc(/C(O)=C2\C(=O)C(=O)N(CCN(C)C)C2c2cccc(OC)c2OC)cc1Cl (stereo not drawn)	inconclusive: 79.4 µM [inhibitor, single point]
COCCn1c(N)c(N(Cc2ccccc2)C(=O)CSCC(=O)Nc2ccc(C)cc2)c(=O)[nH]c1=O	inactive
O=C(CSc1nnc(-c2ccncc2)o1)Nc1ccccc1Cl	inactive
COc1ccc(C(=O)NCc2ccc3c(c2)OCO3)c(OC)c1	inconclusive: 31.6 µM [inhibitor, partial curve]
Cc1c(C(=O)N(C)C)sc2nc(-c3ccccn3)[nH]c(=O)c12	active: 50.1 µM
COC(=O)CCC(=O)OC1(C)C(=O)C=C2C=C(C3CC3)N(CCCOC(C)C)C=C2C1=O (stereo not drawn)	inactive
Cc1ccc(C(=O)Nc2nnc(CC(=O)N/N=C/c3ccncc3)s2)cc1	inconclusive: 56.2 µM [inhibitor, partial curve]
Cn1c(-n2cccc2)c(-c2c(-c3ccccc3)[nH]c3c2c(=O)[nH]c(=O)n3C)c(=O)[nH]c1=O	inactive
Cc1ccc(NP(=O)(c2ccc(N(C)C)cc2NC(=O)c2cccs2)N2CCOCC2)cc1Cl (stereo not drawn)	inconclusive: 44.7 µM [inhibitor, single point]
CCOC(=O)C1(CCOC)CCN(Cc2cc3ccccc3s2)CC1	inconclusive: 11.2 µM [inhibitor, full curve]
Clc1ccc(OCc2nnc(SCCN3CCCCC3)n2Cc2ccco2)cc1	inconclusive: 100 µM [inhibitor, single point]
